# Assay results taken from the supplement of paper PMC9446081.
# Hit rate of the full screen: of about 39,000 compounds, about 220 (0.56%) showed activity. The list shows a part of the results.
# System: Escherichia coli K-12 BW25113
# Assay: relative growth (OD600 normalised to plate interquartile mean) (fraction); higher = less growth inhibition, active = 0.2 or less
# Details: 50 µM; LB; incubation time: overnight (16-24 h)
# 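Further: static incubation at 37 °C against the wild-type strain, values averaged over two biological replicates.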
row,SMILES,relative growth
1,CN1CCN(C(=O)C[C@H]2CC[C@H]3[C@@H](COC[C@@H](O)CN3Cc3ccc4c(c3)OCO4)O2)CC1,inactive: 0.845
2,Cc1noc(C)c1NC(=O)Nc1ccc2c(c1)C(=O)N([C@H](C)CO)C[C@H](C)[C@H](CN(C)C(=O)Nc1ccc(F)cc1)OCCCC[C@H](C)O2,inactive: 0.978
3,C[C@@H]1CN([C@@H](C)CO)S(=O)(=O)c2ccc(C#CC3(O)CCCC3)cc2O[C@H]1CN(C)C(=O)Cc1ccncc1,inactive: 1.03
4,Cc1ccc(S(=O)(=O)N(C)C[C@@H]2Oc3cc(Br)ccc3S(=O)(=O)N([C@H](C)CO)C[C@H]2C)cc1,inactive: 1.03
5,Cc1ccc(S(=O)(=O)Nc2ccc3c(c2)C(=O)N([C@H](C)CO)C[C@H](C)[C@H](CN(C)Cc2ccc(C(=O)O)cc2)OCCCC[C@@H](C)O3)cc1,inactive: 1
6,COc1ccc(CN(C)C[C@H]2Oc3ccc(NC(=O)Cn4cnnn4)cc3C(=O)N([C@@H](C)CO)C[C@@H]2C)cc1,inactive: 0.998
7,COc1ccc(NC(=O)N(C)C[C@@H]2Oc3c(NS(=O)(=O)c4cn(C)cn4)cccc3C(=O)N([C@@H](C)CO)C[C@@H]2C)cc1,inactive: 0.998
8,C[C@H]1CN([C@@H](C)CO)S(=O)(=O)c2ccc(-c3ccncc3)cc2O[C@@H]1CN(C)C(=O)c1ccc2c(c1)OCO2,inactive: 0.998
9,C[C@@H]1CN([C@H](C)CO)C(=O)c2c(c3ccccc3n2C)-c2ccccc2CO[C@@H]1CN(C)C(=O)c1ccc(F)cc1,inactive: 1.01
10,C[C@H]1CN([C@@H](C)CO)C(=O)c2cc(-c3cccc(C(=O)N(C)C)c3)cnc2O[C@@H]1CN(C)S(=O)(=O)c1ccc(F)cc1,inactive: 0.975
11,C[C@H]1CCCCO[C@@H](CN(C)S(=O)(=O)c2ccccc2)[C@@H](C)CN([C@@H](C)CO)C(=O)c2cc(NC(=O)c3ccccc3)ccc2O1,inactive: 0.992
12,Cc1noc(C)c1NC(=O)N(C)C[C@@H]1Oc2ccc(NC(=O)C3CC3)cc2CC(=O)N([C@H](C)CO)C[C@H]1C,inactive: 0.962
13,O=C(C[C@H]1C[C@H]2c3cc(NC(=O)Nc4ccc(C(F)(F)F)cc4)ccc3O[C@H]2[C@H](CO)O1)NCCc1ccccc1,inactive: 1.02
14,COCC(=O)Nc1ccc2c(c1)C(=O)N(C)C[C@H](OC)[C@@H](C)CN(Cc1ccccc1F)[C@H](C)CO2,inactive: 0.991
15,Cc1cc(C(=O)Nc2cccc3c2O[C@H](CN(C)Cc2ccc(Oc4ccccc4)cc2)[C@@H](C)CN([C@@H](C)CO)C3=O)n(C)n1,inactive: 1.01
16,C[C@@H]1CN([C@@H](C)CO)C(=O)c2cc(N(C)C)ccc2O[C@H]1CN(C)S(C)(=O)=O,inactive: 0.985
17,CS(=O)(=O)N1C[C@H]2C[C@@H](F)[C@@H](O)[C@@H]2C1,inactive: 1
18,C[C@@H]1CN([C@@H](C)CO)C(=O)c2cc(NS(=O)(=O)c3cn(C)cn3)ccc2O[C@H]1CN(C)Cc1ccc2c(c1)OCO2,inactive: 1.02

row,SMILES,relative growth
1,CO[C@H]1CN(C)C(=O)c2ccc(NC(=O)CC(F)(F)F)cc2OC[C@@H](C)N(S(=O)(=O)c2cn(C)cn2)C[C@@H]1C,inactive: 1.01
2,C[C@@H]1CN([C@H](C)CO)C(=O)c2cc(NC(=O)Nc3ccc(F)cc3)ccc2O[C@@H](C)CCCCO[C@H]1CN(C)C(=O)Nc1ccc(C(F)(F)F)cc1,inactive: 1
3,C[C@@H]1CCCCO[C@@H](CN(C)C(=O)Cc2ccccc2)[C@@H](C)CN([C@H](C)CO)C(=O)c2cc(NC(=O)c3ccccc3)ccc2O1,inactive: 0.995
4,Cc1noc(C)c1NC(=O)N(C)C[C@H]1Oc2ccc(NC(=O)Cn3cnnn3)cc2C(=O)N([C@@H](C)CO)C[C@@H]1C,inactive: 0.994
5,O=C(NC[C@H]1CCCO1)c1ccc(/C=N/O)nc1,inactive: 1.02
6,C[C@@H]1CN([C@H](C)CO)C(=O)c2cc(NC(=O)c3ccccc3)ccc2O[C@@H](C)CCCCO[C@@H]1CN(C)S(=O)(=O)c1ccc(F)cc1,inactive: 1.03
7,CN1CCN(C(=O)C[C@H]2CC[C@@H]3[C@H](COc4ccc(NC(=O)c5cccs5)cc4C(=O)N3C)O2)CC1,inactive: 0.984
8,COc1ccc(NC(=O)Nc2ccc3c(c2)C(=O)N([C@H](C)CO)C[C@H](C)[C@H](CN(C)S(=O)(=O)c2ccc(Cl)cc2)OCCCC[C@H](C)O3)cc1,inactive: 1.04
9,COc1ccc(CN(C)C[C@H]2Oc3ccc(NC(=O)Nc4cccc5ccccc45)cc3C(=O)N([C@H](C)CO)C[C@H]2C)cc1,inactive: 1.02
10,C[C@@H]1CN([C@H](C)CO)S(=O)(=O)c2ccc(C#Cc3ccc(F)cc3)cc2O[C@H]1CN(C)S(=O)(=O)c1cn(C)cn1,inactive: 1.02
11,C[C@H]1CN([C@@H](C)CO)C(=O)c2cccc(NC(=O)c3nc4ccccc4s3)c2O[C@@H]1CN(C)Cc1ccc(Cl)c(Cl)c1,inactive: 1.03
12,COc1ccc(NC(=O)N(C)C[C@@H]2OCCCC[C@@H](C)Oc3ccc(NC(=O)NC4CCCCC4)cc3C(=O)N([C@H](C)CO)C[C@@H]2C)cc1,inactive: 0.97
13,Cn1cnc(S(=O)(=O)N2C[C@H](O)COC[C@H]3O[C@@H](CC(=O)NCc4cc(F)cc(F)c4)CC[C@@H]32)c1,inactive: 1.01
14,C[C@@H]1CN([C@@H](C)CO)C(=O)c2cc(NS(=O)(=O)c3ccc(Cl)cc3)ccc2O[C@@H](C)CCCCO[C@H]1CN(C)Cc1ccc(C(=O)O)cc1,inactive: 1.04
15,C[C@H]1CN([C@@H](C)CO)C(=O)c2ccccc2-c2ccccc2CO[C@H]1CN(C)C(=O)Nc1cccc(C(F)(F)F)c1,inactive: 0.985
16,CO[C@@H]1CN(C)C(=O)c2cc(NC(=O)C3CCOCC3)ccc2OC[C@@H](C)N(Cc2cccnc2)C[C@H]1C,inactive: 0.985
17,COc1ccccc1CNC(=O)C[C@H]1CC[C@H]2[C@@H](COC[C@H](O)CN2C(=O)Nc2ccc(Cl)cc2)O1,inactive: 0.894
18,C[C@@H]1CN([C@@H](C)CO)C(=O)Cc2cc(NC(=O)CCN3CCOCC3)ccc2O[C@@H]1CN(C)S(=O)(=O)c1cn(C)cn1,inactive: 1
